Source: a collection of fitness landscapes (doi:10.1126/science.1257360)
The other results are listed elsewhere or left out.

B1: PhoQ; a variant is named by its letters at X, in order, P23837 (parent)
chain: MKKLLRLFFPLSLRVRFLLATAAVVLVLSLAYGMVALIGYSVSFDKTTFRLLRGESNLFYTLAKWENNKLHVELPENIDKQSPTMTLIYDENGQLLWAQRDVPWLMKMIQPDWLKSNGFHEIEADVNDTSLLLSGDHSIQQQLQEVREDDDDAEMTHSVAVNVYPATSRMPKLTIVVVDTIPVELKSSYMVWSWFIYVLSANLLLVIPLLWVAAWWSLRPIEALAKEVRELEEHNRELLNPATTRELTSLVRNLNRLLKSERERYDKYRTTLTDLTHSLKTPLXXLQXXLRSLRSEKMSVSDAEPVMLEQISRISQQIGYYLHRASMRGGTLLSRELHPVAPLLDNLTSALNKVYQRKGVNISLDISPEISFVGEQNDFVEVMGNVLDNACKYCLEFVEISARQTDEHLYIVVEDDGPGIPLSKREVIFDRGQRVDTLRPGQGVGLAVAREITEQYEGKIVAGESMLGGARMEVIFGRQHSAPKDE

Variants of: B1
Assay: enrichment ratio after two sorts for PhoP signalling (ratio (wild type AVST 3.29)); higher = more functional
Settings: with PhoP (E. coli)

Variant | enrichment ratio
WGSH | ≤ 0.25
KHEN | ≤ 0.25
DRKL | ≤ 0.25
DEWY | ≤ 0.25
QART | ≤ 0.25
AWGW | ≤ 0.25
KIQQ | ≤ 0.25
QNCW | ≤ 0.25
SCQY | ≤ 0.25
IEED | ≤ 0.25
NIFM | ≤ 0.25
PDVC | ≤ 0.25
PPDT | ≤ 0.25
ERKC | ≤ 0.25
GWWY | ≤ 0.25
IGYE | ≤ 0.25
LAPQ | ≤ 0.25
DDAF | ≤ 0.25
IWTE | ≤ 0.25
RSAS | ≤ 0.25
YYPQ | ≤ 0.25
PTDF | ≤ 0.25
REEM | ≤ 0.25
NIAH | ≤ 0.25
KKCD | ≤ 0.25

Variant | enrichment ratio
DSRI | ≤ 0.25
LYYS | ≤ 0.25
DLFC | ≤ 0.25
DCAG | ≤ 0.25
VIQG | ≤ 0.25
EHVM | ≤ 0.25
FQEK | ≤ 0.25
WFTC | ≤ 0.25
YGPL | ≤ 0.25
VFGP | ≤ 0.25
IPWV | ≤ 0.25
YLSN | 0.298
HYAP | ≤ 0.25
QHPE | ≤ 0.25
YGGI | ≤ 0.25
DTGP | ≤ 0.25
HDEC | ≤ 0.25
IGAI | ≤ 0.25
WPMS | ≤ 0.25
FTTN | ≤ 0.25
FEVM | 11.6
FQAE | ≤ 0.25
VNPV | ≤ 0.25
QAMA | ≤ 0.25
ECRT | ≤ 0.25

Variant | enrichment ratio
FPMF | ≤ 0.25
LIYP | ≤ 0.25
TGQV | 6.45
MIRH | ≤ 0.25
HPKL | ≤ 0.25
DDNS | ≤ 0.25
VGQY | ≤ 0.25
FEAE | ≤ 0.25
YVSF | 0.358
LFQW | ≤ 0.25
ANNI | 0.277
PKDF | ≤ 0.25
IHDE | ≤ 0.25
KEYD | ≤ 0.25
DADW | ≤ 0.25
QHIS | ≤ 0.25
EIRW | ≤ 0.25
MHDP | ≤ 0.25
GAWN | ≤ 0.25
VRLG | ≤ 0.25
GTNE | ≤ 0.25
ARFR | ≤ 0.25
WRHL | ≤ 0.25
GKSL | ≤ 0.25
QCKL | ≤ 0.25

Variant | enrichment ratio
VFDE | ≤ 0.25
GMIN | ≤ 0.25
GALR | ≤ 0.25
GLVM | 16.2
FCQF | 1.3
GLSL | 11.5
EEYM | ≤ 0.25
DACS | ≤ 0.25
SVVQ | 2.72
NDPR | ≤ 0.25
HPLP | ≤ 0.25
SMHK | ≤ 0.25
HGKK | ≤ 0.25
HRIY | ≤ 0.25
SVGW | 14.4
INVC | ≤ 0.25
PRWP | ≤ 0.25
ILPE | ≤ 0.25
KPPI | ≤ 0.25
NKSA | ≤ 0.25
GGLM | 2.85
FRSI | ≤ 0.25
QTDS | 8.33
VRKK | ≤ 0.25
LAQF | ≤ 0.25

Variant | enrichment ratio
IRIF | ≤ 0.25
MFRM | ≤ 0.25
PKRG | ≤ 0.25
MTTQ | ≤ 0.25
WFVV | ≤ 0.25
YEAP | ≤ 0.25
NYLS | ≤ 0.25
RVKN | ≤ 0.25
QVFS | ≤ 0.25
SPVG | ≤ 0.25
VRDN | ≤ 0.25
FCGL | ≤ 0.25
MTDM | ≤ 0.25
ECCH | ≤ 0.25
GSSW | ≤ 0.25
LERE | ≤ 0.25
PPGR | ≤ 0.25
MLDI | ≤ 0.25
SGHR | ≤ 0.25
NTTN | ≤ 0.25
ESRD | ≤ 0.25
DVLA | ≤ 0.25
GCSA | ≤ 0.25
PADR | ≤ 0.25
LYDK | ≤ 0.25

Variant | enrichment ratio
YNEP | ≤ 0.25
EMKR | ≤ 0.25
TLNV | 4.05
KSAK | ≤ 0.25
VGVS | ≤ 0.25
VQMM | ≤ 0.25
RSLC | ≤ 0.25
DLAW | ≤ 0.25
YYIA | ≤ 0.25
HSCA | ≤ 0.25
SLRK | ≤ 0.25
SKWR | ≤ 0.25
NKSE | ≤ 0.25
TYEI | ≤ 0.25
DLDY | ≤ 0.25
MKIV | ≤ 0.25
FYHV | ≤ 0.25
ANTF | 4.96
YYAF | ≤ 0.25
ACQQ | ≤ 0.25
HWHF | ≤ 0.25
SEYN | ≤ 0.25
NCGD | ≤ 0.25
HFDL | ≤ 0.25
ANGM | 21.9

Variant | enrichment ratio
WFFQ | ≤ 0.25
HMLE | ≤ 0.25
DYTH | ≤ 0.25
NHQD | ≤ 0.25
THNH | 16.2
YWAL | ≤ 0.25
MFWC | ≤ 0.25
LVLT | ≤ 0.25
KYSE | ≤ 0.25
TTRT | ≤ 0.25
AHTW | ≤ 0.25
ITQT | ≤ 0.25
MSHK | ≤ 0.25
HHWV | ≤ 0.25
HDRM | ≤ 0.25
HSHG | 0.457
MKVW | ≤ 0.25
DMHE | ≤ 0.25
WIKF | ≤ 0.25
MKYS | ≤ 0.25
PFDI | ≤ 0.25
AGSE | 9.87
NEQF | ≤ 0.25
TKRM | ≤ 0.25
NWPK | ≤ 0.25

Variant | enrichment ratio
GCCC | 0.317
HGSD | ≤ 0.25
NGLW | ≤ 0.25
MKPG | ≤ 0.25
SWSP | ≤ 0.25
SSMN | 8.17
MAFQ | 24.4
LSEV | ≤ 0.25
SESF | 8.74
MYMK | ≤ 0.25
ATIG | 4.76
LWLM | ≤ 0.25
IKND | ≤ 0.25
SHRH | ≤ 0.25
TSWA | 15.4
PGMV | ≤ 0.25
TEVE | 11.6
DPPG | ≤ 0.25
FHCI | ≤ 0.25
RDLT | ≤ 0.25
